Assay results from PubChem BioAssay AID1508624 (National Center for Advancing Translational Sciences (NCATS), 2021).
Among all 48,000 compounds or so, about 120 (0.25%) were called active. Not shown: some 4% with an inconclusive outcome. Calls follow the shape of the dose curve; as a rule, active = well fitted activation curve with a large enough effect; inconclusive = small, poorly fitted or top-dose-only effect, or another doubt; inactive = no such curve, though single readings can be large or run the other way. Some of the results follow.

Experiment: Primary qHTS for Identification of Small Molecule Activators of Huntingtin-Antisense Promoter Activity; also: nearly all actives have a fitted effect of over 55% in size
Settings: HEK293 HTT-AS promoter firefly luciferase reporter, 24 h; series mostly up to 57.5 µM; activity change, positive = activation: at the top concentration
Summary of the method: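 HEK293 cells carrying firefly luciferase reporters were seeded at 2,500 per well in Opti-MEM and cultured for 24 h. They were then treated with compounds at up to 57.5 uM final for 24 h at 37 degrees C before Dual-Glo luminescence readout.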

Activity change, positive = activation, inactive:
CCOC(=O)c1cnn(-c2ccc(OC)cc2)c1C1CCN(C(=O)OC(C)(C)C)CC1 -21.9%, Cc1cccc(-c2nc(SCc3ccc(Br)cc3)n3[nH]c(=O)cc3n2)c1 9.01%, CSc1nc2sc3c(c2c(=O)n1-c1ccc(C)c(Cl)c1)CCN(C(C)=O)C3 -10.4%, Cc1ccc(N2CC3=C(C2=O)C(c2ccc(Br)cc2)NC(=O)N3C)cc1 (stereo not drawn) -13.6%, CC(C)c1ccc(NS(=O)(=O)c2ccc3[nH]cc(C(=O)NC4CCCC4)c(=O)c3c2)cc1 -11.9%, O=C(Cn1c(=O)oc2cc(S(=O)(=O)N3CCCCCC3)ccc21)Nc1cccc(C(F)(F)F)c1 -38%, CCn1c(=O)cc(SCC(=O)Nc2ccc(C)c(F)c2)c2ccccc21 0%, O=C1Cc2cc(S(=O)(=O)N3CCN(c4ccccc4)CC3)ccc2N1 -16.6%, Cc1ccccc1Nc1sc(C(=O)c2ccc3c(c2)OCO3)c(N)c1S(=O)(=O)c1ccccc1 10.3%, Cc1ccc(-c2nc(C(=O)NCc3ccc(Cl)cc3)c3n2CCCCC3)cc1 -42%, CCC(=O)N1CCc2cc(Br)cc(S(=O)(=O)NCCc3ccc(OC)c(OC)c3)c21 -11.9%, CC(=O)C1=C(OC(=O)C(C)C)c2ccccc2S(=O)(=O)N1Cc1ccccc1 -11.2%, O=C(NCCCc1nc2ccccc2n1Cc1ccccc1Cl)C1CCCCC1 -34.3%, Cc1[nH]n2c(=O)cc(-c3ccccc3Cl)nc2c1-c1ccccc1 -41.5%, CCN(CC)CCNC(=O)c1ccc(NC(C)=O)cc1 -12.9%, Cc1cc(NC(=O)CN2C(=O)C(C)(C)c3ccccc32)ccc1Br -14.6%, Cc1ccc(CNC(=O)CC2Oc3ccccc3NC2=O)cc1 (stereo not drawn) -0.208%, CCN(C(=O)CSc1nc2ccccc2n1CC(=O)Nc1cccc(C#N)c1)c1ccccc1 -44.5%, CCOC(=O)C1CCCN(C(=O)Cn2ncc3c([nH]c4ccccc43)c2=O)C1 (stereo not drawn) -15.1%, COc1ccc(C(CC(=O)Nc2ccc(F)c(Cl)c2)N2Cc3ccccc3C2=O)cc1OC (stereo not drawn) -28.8%, CC1CCN(S(=O)(=O)c2ccc3c(c2)N(CC(=O)NCc2ccccc2)C(=O)CO3)CC1 -29.8%, COC(=O)c1ccc(Cl)cc1NC(=O)N1CC=C(c2c[nH]c3ccccc23)CC1 -14.8%, CC[C@H]1OC(=O)[C@H](C)[C@@H](O[C@H]2C[C@@](C)(OC)[C@@H](O)[C@H](C)O2)[C@H](C)[C@@H](O[C@@H]2O[C@H](C)C[C@H](N(C)C)[C@@H]2O)[C@](C)(O)C[C@@H](C)CN(C)[C@H](C)[C@@H](O)[C@]1(C)O -7.83%, COc1ccc(N2CCN(C(=O)c3cc4c(-c5ccccc5F)nn(C)c4s3)CC2)cc1 -34%, COc1ccc(OC)c(NC2=C(c3ccccc3)C(=O)c3ccccc32)c1 -34.9%, O=C(Cn1ncc2c(=O)oc3ccccc3c21)Nc1cc(F)ccc1F -16.6%, O=C(CSc1nc2nccnc2c(=O)n1CCc1c[nH]c2ccccc12)Nc1ccccc1F -21.9%, Oc1ccccc1Nc1nc(-c2ccccc2)c2cc(Cl)ccc2n1 -14.9%, Cc1cccc(OCCCC(=O)Nc2sc3c(c2C(N)=O)CCC(C)C3)c1 (stereo not drawn) -7.09%, CCN(CC)c1nc(-c2ccc(C(C)(C)C)cc2)nc2ccccc12 -10% [at 11.5 µM, percent change from vehicle, -100% = no light], COc1ccc2c(CNCC(C)c3ccccc3)c(C(=O)O)n(Cc3ccc(F)cc3Cl)c2c1 (stereo not drawn) -13.3%, COc1ccc(/C=C(\C#N)c2nc(-c3cc(Cl)ccc3OC)cs2)cc1 -10%, O=C1CS(=O)(=O)C2(C(=O)N(Cc3cccc(F)c3)c3ccccc32)N1c1ccccc1 (stereo not drawn) -34.2%, CCOc1ccccc1-n1ccnc(NCc2ccc(F)cc2)c1=O -13.7%, Cc1cccc(NC(=O)Nc2nnc(N(C)C3CCCCC3)s2)c1C -3.47%, O=S(=O)(NCCNCC=Cc1ccc(Br)cc1)c1cccc2cnccc12 -27.9%, Cc1nn(CC(=O)NCc2ccco2)c(=O)c2cc3ccccc3n12 -4.38%, CCc1ccccc1N(C)C(=O)c1cn(CC(C)C)c(=O)c2cc(OC)c(OC)cc12 -25.5%, O=C(CCC(=O)N1Cc2ccccc2Oc2ncccc21)Nc1ccc(Cl)cc1 -33.1%, CN(C)CCNC(=O)C1CCN(c2nc3ccccc3[nH]2)CC1 -4.3%, COc1ccc(NC(=O)Nc2nnc(N3CCCCCC3)s2)cc1 4.8%, Cc1ccc(NC(=O)c2nc(S(C)(=O)=O)ncc2N(Cc2ccccc2)Cc2ccco2)c(C)c1 -10.7%, Cc1c(NC(=O)c2cc([N+](=O)[O-])ccc2N2CCOCC2)cccc1-c1nc2ccccc2o1 -20%, Cc1nn(-c2ccc(F)cc2)c(-n2cccc2)c1C(=O)N1CCN(c2ccc(F)cc2)CC1 -34.2%, CNC[C@H](O)c1cccc(O)c1, COc1ccc(NC(=O)c2nnn(Cc3ccccc3C)c2N)c(OC)c1 -5.86%, Cc1ccc(C(=O)Nc2c(-c3ccccc3)nc3ccccn23)cc1C -14%, Cc1ccc(CNC(=O)Cn2c3ncccc3c(=O)n2-c2ccccc2)cc1 -22.1%, O=C(CSc1ccc(-c2ccccn2)nn1)Nc1ccc(F)c(F)c1 -20%, COc1cc(OC)c(NC(=O)c2c(C)oc3ncn(C)c(=O)c23)cc1Cl -5.06%, CCOc1ccc(CCNC(=O)CCc2c(C)nc3c(c(C)nn3-c3ccccc3)c2C)cc1OCC -36.1%, CCOc1ccc(NC(=O)c2ccc(NC(=O)CCS(=O)(=O)c3cccs3)cc2)cc1 -21.6%, Cc1ccc(C2CC(=O)N(Cc3ccccc3F)c3c2c(C)nn3-c2nc(C)cc(C)n2)cc1 (stereo not drawn) -13.9%, C[C@]12CCC(=O)C=C1CC[C@H]1[C@@H]3CC[C@](O)(C(=O)CO)[C@@]3(C)C[C@H](O)[C@@]12F -11.1%, CCn1cc(C(=O)N2CCN(c3cccc(Cl)c3)CC2)c(=O)c2cc(S(=O)(=O)N3CCOCC3)ccc21 -10.4%, Cc1ccc(Cc2nc3ccccc3nc2SCC(=O)N2CCc3ccccc32)cc1 -3.59%, CCOc1ccccc1NC(=O)c1ccc2oc(=O)c(S(=O)(=O)c3ccc(F)cc3)cc2c1 -72.5%, CN(C(=O)CSc1nc2ccc(NC(=O)c3ccc(F)cc3)cc2s1)c1ccccc1 -53.9%, COc1ccc(NC(=O)CCS(=O)(=O)c2cc(Br)cc3c2N(C(C)=O)CC3)c(OC)c1 -1.02%, CCOC(=O)Nc1ccc2c(c1)N(C(=O)CCN1CCOCC1)c1ccccc1S2 -26%, COc1ccc(-c2onc(C)c2C)cc1S(=O)(=O)NC1CCCCC1 -39.5%, Cc1cccc(N2CCN(C(=O)Cn3nc(C)c4sc5ccccc5c4c3=O)CC2C)c1 (stereo not drawn) 8.13%, O=C(Nc1cccc(C(=O)OCc2cc(=O)n3nc(C4CC4)sc3n2)c1)c1ccc(F)cc1 -4.48%, CC(=O)c1ccc(S(=O)(=O)N2CCC(Oc3ccc(-n4cnnn4)cc3)CC2)cc1 -15.4%, O=C(Nc1cccc(Cl)c1)N1Cc2ccccc2Oc2ncccc21 -20.3%, CCc1ccc(NC(=O)CN2C(=O)C(=O)c3ccccc32)cc1 11.5%, COc1ccc(S(=O)(=O)Nc2ccc(O)c(Sc3nc4ccccc4s3)c2)cc1 -18.8%, CCCC(=O)NC1CC(=O)N(c2ccc3c(c2)OCCO3)C1 (stereo not drawn) -4.5%, COc1ccccc1C1C(C(N)=O)=C(C)Nc2nc(SCc3ccccc3F)nn21 (stereo not drawn) -10.7%, Cc1c(C(=O)N(C)C)sc2c1c(=O)n(-c1ccc(Cl)c(Cl)c1)c(=O)n2Cc1ccc(F)cc1 -9.2%, Cc1ccc(-n2nc(C)c3c(C)c(CCC(=O)NCc4cccc(Cl)c4)c(C)nc32)cc1C -27.1%, CCOCCCn1c(=N)c(S(=O)(=O)c2ccccc2)cc2c(=O)n3cc(C)ccc3nc21 3.3%, CC(=O)c1cccc(NC(=O)c2ccc3c(c2)CCN3S(=O)(=O)c2ccccc2)c1 -11.8%, CCn1cc(S(=O)(=O)c2ccccc2)c(=O)c2cc(F)c(N3CCCCCC3)cc21 -22.9%, O=C(CSc1c2c(nc3ccc(Cl)cc13)CCCC2)N1CCCCC1 -16.4%, CCOc1ccc(CCNC(=O)c2cc3cc4ccc(OC)cc4nc3s2)cc1OCC -8.7%, Cc1ccccc1OCC(=O)Nc1ccc(S(=O)(=O)Nc2ncccn2)cc1 10.1%, COc1ccc(C(=O)Oc2c(Sc3ccc(C)cc3)c(C)nn2C(C)(C)C)c(OC)c1 -52.2%, Nc1c2c(nc3c1CCC3)CCCC2 -5.41%, COCCNC(=O)C(=O)Nc1ccc2nc3n(c(=O)c2c1)CCCCC3 -1.11%, C=Cc1ccc(Cn2c(C(=O)O)c(CNCc3cc(OC)ccc3OC)c3ccc(C)cc32)cc1 -24.6%, COc1ccc(CCNC(=O)C(C)n2nc(C)c3sc4ccccc4c3c2=O)cc1OC (stereo not drawn) -17.9%, CCOc1ccc(C2C(C(=O)Nc3ccc(C)cc3C)=C(C)Nc3c(C(=O)Nc4ccc(C)cc4)cnn32)cc1OC (stereo not drawn) 1.06%, CCC12CN3CC(C)(CN(C1)C3c1c(C)[nH]c3ccccc13)C2=O (stereo not drawn) 3.37%, O=C(O)c1ccc(Nc2ncc3c(n2)-c2ccc(Cl)cc2C(c2c(F)cccc2F)=NC3)cc1 -14.9%, COc1ccc(C2NC(=O)N(C)C3=C2C(=O)N(c2ccccc2)C3)cc1 (stereo not drawn) -23.3%, COc1ccc(-c2nc3c(C#N)c[nH]n3c2NC2CCCCC2)cc1 44.4%, COC(=O)C1=C(c2ccccc2)c2ccccc2S(=O)(=O)N1CC(=O)Nc1cc(C)ccc1C -25%, Cc1ccc(CN2C(=O)C3(SCC(=O)N3c3ccc(C)c(C)c3)c3ccccc32)cc1 (stereo not drawn) -24.7%, CCOC(=O)Cn1nc(N2CCN(c3ccc(F)cc3)CC2)ccc1=O -14.3%, CCOC(=O)c1cccc(NC(=O)CCc2c(C)nc3c4cccnc4nn3c2C)c1 -6.44%, Cc1cccc(N2CCN(c3c(CN4CCCC4)c(=O)oc4ccccc34)CC2)c1C -13.1%, Cc1c(C(=O)N2CCOCC2)oc2c1-c1nn(CC(=O)NCc3ccccc3)cc1CC2 -18.3%
